In all, about 33,000 sequences were measured (“E-score (-0.5 to 0.5)”: median about -0.032, highest 2% from about 0.36 on). Some of the results follow.
Target: T1, Sko1 (UniProt Q02100)
T1 sequence: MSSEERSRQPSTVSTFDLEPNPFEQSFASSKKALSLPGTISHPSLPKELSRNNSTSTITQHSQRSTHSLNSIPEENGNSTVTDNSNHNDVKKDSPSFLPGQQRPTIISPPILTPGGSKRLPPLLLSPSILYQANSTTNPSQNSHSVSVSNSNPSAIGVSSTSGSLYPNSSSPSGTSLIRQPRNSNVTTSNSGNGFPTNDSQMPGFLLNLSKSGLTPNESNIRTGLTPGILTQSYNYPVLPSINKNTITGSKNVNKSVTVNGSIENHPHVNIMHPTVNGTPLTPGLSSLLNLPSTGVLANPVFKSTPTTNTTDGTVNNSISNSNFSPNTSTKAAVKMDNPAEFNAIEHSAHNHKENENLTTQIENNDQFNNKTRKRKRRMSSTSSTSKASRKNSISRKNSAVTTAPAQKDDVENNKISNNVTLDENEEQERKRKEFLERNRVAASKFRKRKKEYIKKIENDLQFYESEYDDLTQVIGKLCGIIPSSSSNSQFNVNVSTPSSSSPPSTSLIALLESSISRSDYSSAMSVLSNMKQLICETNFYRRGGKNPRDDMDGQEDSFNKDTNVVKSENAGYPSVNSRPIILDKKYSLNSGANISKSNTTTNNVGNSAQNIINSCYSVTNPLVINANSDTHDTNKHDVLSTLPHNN
Experiment: PBM E-score (8-mer binding enrichment) (E-score (-0.5 to 0.5)); higher = stronger / more preferred TF binding; most listed sequences are background and not binding sites
Conditions: protein concentration: 200 nM; construct: GST-full length
Summary of the method: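 Using PURExpress in vitro transcription/translation, GST-tagged yeast transcription factors were made in full-length or DNA-binding-domain form. These were applied at about 100-200 nM to double-stranded universal all-10-mer Agilent arrays, and bound protein was detected with fluorescent anti-GST. Scans were normalised with masliner before the Universal PBM Analysis Suite assigned E-scores to ungapped eight-base words pooled with their reverse complements.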

| Sequence | PBM E-score |
| --- | --- |
| CTTTCTGA | 0.0713 |
| AACTTGAA | 0.079 |
| AAATCACC | 0.124 |
| AATCCGCT | -0.245 |
| GCACAGGA | -0.241 |
| GTCAAAGA | 0.22 |
| GGATATAC | 0.116 |
| TACGTAGA | 0.452 |
| ACAGCTCA | -0.109 |
| CATTCCGC | -0.199 |
| ATAGACAG | -0.0599 |
| CTCGGTTC | -0.33 |
| AAGTATTC | 0.0857 |
| AGAGTGCT | 0.00873 |
| AACGCCTT | -0.209 |
| CAGCTCAA | -0.134 |
| ATTTGGCC | -0.00792 |
| CGGCGTTA | -0.0476 |
| ATCATAAT | 0.294 |
| ATTGAGCC | -0.0846 |
| CATAAAGG | -0.0363 |
| CAGTTTGC | -0.19 |
| CCTCCTAA | -0.121 |
| CAGTCTCC | -0.165 |
| GATAGACC | -0.0875 |

| Sequence | PBM E-score |
| --- | --- |
| ATAAAAAC | 0.274 |
| CACCAGGC | -0.19 |
| CACCTAAG | 0.0413 |
| TAAGTAGA | 0.0586 |
| TATAAGGA | 0.112 |
| CCCTTCAG | -0.211 |
| CACCGATA | -0.15 |
| ATCTCAGA | 0.00298 |
| AGTTATGG | 0.0756 |
| ATGATGCC | 0.244 |
| ATTCACGC | 0.112 |
| GATGTACC | 0.169 |
| GAAGCCCA | -0.19 |
| AACCGGGC | -0.197 |
| GACTACGA | 0.0532 |
| AGCTGTAA | 0.111 |
| CCGGTGCA | -0.307 |
| TATGGTCA | -0.0135 |
| CCGGCAGG | -0.21 |
| CCTTTGAG | -0.246 |
| CTCATATC | -0.0756 |
| AGTTTAAA | 0.0848 |
| ATGAGGGA | -0.0866 |
| AGATGTTG | -0.0881 |
| ACAGTTAT | -0.0847 |

| Sequence | PBM E-score |
| --- | --- |
| AGCTAGCA | -0.152 |
| AGGTCGGG | -0.181 |
| GACGCTCA | 0.0162 |
| GCAGAAGC | -0.0652 |
| GACCCCAA | -0.191 |
| AATGCAGT | -0.00733 |
| CCATGTGC | -0.00035 |
| AGCCAGGG | -0.174 |
| ACTGGATG | -0.0786 |
| AGCCTCTC | -0.308 |
| CAGCAGCG | -0.213 |
| CCTGCGAC | -0.19 |
| CCACACCG | -0.196 |
| CGTAAGCA | 0.285 |
| AGATAAAC | 0.077 |
| CAGTCCAG | -0.226 |
| CGGGCCAG | -0.256 |
| CTTGGGGC | -0.23 |
| AAGACATG | 0.139 |
| CAGCGCAA | -0.044 |
| GGCCCAAA | -0.258 |
| ACTGGACC | -0.119 |
| ATCATGAA | 0.126 |
| GAATGTGC | 0.0492 |
| AAAGTCAG | -0.211 |

| Sequence | PBM E-score |
| --- | --- |
| CGCATTAG | 0.005 |
| CTTACGAC | 0.16 |
| AAAACAAG | 0.0101 |
| CGTGCGAG | 0.08 |
| CAAACTGC | -0.044 |
| CAGTGTGG | -0.203 |
| AGCACGTA | 0.406 |
| GCCCCTAA | -0.235 |
| ACGCGTAC | 0.307 |
| GATACGCC | 0.0708 |
| AAGCGCTA | 0.0442 |
| AATTAACT | 0.199 |
| AAGCGTAT | 0.107 |
| CTCTACGC | 0.0479 |
| CAGCCTAC | -0.0628 |
| CCTCGCCG | -0.442 |
| CGCGGGCA | -0.0346 |
| ACGGGCGC | -0.241 |
| ATATGCTG | -0.00443 |
| CAAGATGC | 0.106 |
| GCAATACA | 0.182 |
| CCCCCATA | -0.262 |
| GCCCGTTA | -0.152 |
| CAAGTATC | -0.0706 |
| ACATCGCA | -0.0757 |

| Sequence | PBM E-score |
| --- | --- |
| CATCAGGC | -0.0323 |
| GCTTCGTA | 0.125 |
| ATAAAATC | 0.0454 |
| AGTCACTA | 0.0867 |
| ACGAGGTG | 0.0729 |
| TCACATAA | 0.304 |
| ACAATGTA | 0.111 |
| GCCCGAGC | -0.152 |
| ATCGTTAC | 0.139 |
| GAGAGTAA | -0.011 |
| ATAGGTTG | -0.119 |
| ACCACGCT | -0.0849 |
| CACCTGTA | -0.287 |
| GGAGGCAC | -0.118 |
| ACTTACCG | 0.00307 |
| ATACAAAG | 0.125 |
| ACACAACG | 0.194 |
| AATCATTC | 0.182 |
| ATCGGTGC | 0.105 |
| ACTAGACC | 0.00084 |
| AACTCGCC | -0.048 |
| CGAGGGCA | -0.152 |
| GCACACGA | 0.0509 |
| ATCGCTAA | 0.111 |
| AGACCGAA | 0.0258 |

| Sequence | PBM E-score |
| --- | --- |
| GAATAGAA | 0.0233 |
| CTGCTAAG | -0.194 |
| GATATCGC | 0.0249 |
| ACGCATGG | 0.111 |
| ACGTACGG | 0.38 |
| GTGGGTCA | -0.122 |
| AAGGCATA | 0.00229 |
| AAGGCAGT | -0.0544 |
| AAGCCGTA | 0.103 |
| ATAAGCCC | -0.226 |
| GGATACGA | 0.0523 |
| CCCCAAAA | 0.00959 |
| ATATACGG | 0.219 |
| CATCTAGG | 4e-05 |
| CCTAATAA | 0.115 |
| CTTCGTAA | 0.287 |
| ATGATAAA | 0.235 |
| CCTCAGGA | -0.282 |
| ACTCTTTC | -0.13 |
| ATCTAGAA | 0.0885 |
| CCTTCTGA | -0.0197 |
| AAAACCCA | 0.097 |
| GCTCGCAA | 0.0353 |
| ACTGGGTG | -0.0498 |
| ACTCGATG | 0.0907 |

| Sequence | PBM E-score |
| --- | --- |
| CAGGCCTG | -0.282 |
| CGCAGGGA | -0.165 |
| AGTGTAGA | -0.169 |
| TACCCCTA | -0.102 |
| CGCAAGCG | 0.00208 |
| GGTCGGAC | -0.209 |
| ATATCAAA | 0.0923 |
| TAGATCTA | 0.187 |
| AGCCGTTC | -0.271 |
| CTGCATTC | 0.0642 |
| AAGTCGTC | 0.161 |
| CAACACAC | 0.154 |
| GACAGAGC | -0.236 |
| AAAAAGGG | -0.145 |
| AGGGAAAA | -0.00111 |
| AGAGGGTC | -0.258 |
| AACTGGGA | -0.188 |
| GCTACCCA | -0.253 |
| GCTGGCCA | -0.229 |
| ACAGACAA | 0.162 |
| CCTACTTA | -0.00728 |
| AGACGGGC | -0.247 |

Source: the supplement of paper PMC3334620
